The list shows a part of the results.
What follows are sequences tested on PfSIP2 AP2 domain 1 (GST-tagged) (assay: gcPBM binding intensity (ln(normalized median fluorescence intensity)); higher = stronger DNA binding).
Procedure, shortened: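 The highest Masliner-normalised natural-log median intensity across replicate spots of either probe orientation is reported as binding intensity. GST-tagged P. falciparum DNA-binding domains expressed in E. coli were applied for 1 h to an Agilent 4 × 180k array of primer-extended double-stranded 36-bp intergenic genomic probes plus negative controls, and bound protein was detected with Alexa488 anti-GST antibody and scanned at 488 nm.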

Sequence	gcPBM binding intensity (ln)
TATCTTCATATATGGTGTACAGATTTTTTTTTTTTT [XGTACX_site5545]	7.26
ATAAAATTATTATATACATGCAAAATTAATATATTG [TGCATGCA_site507]	6.84
AAAATAAAAAAAATGAATTAGTTAAATGAAAAATAA [CACACA_negctrl_site1294]	6.89
ATTATATAATAATGCATGCACCTTATTTTCATTTCA [GTGCAC_site9922]	10.7
TTTCTTTTTTTGGGCACACAAAATTTTCTCATTTTA [CACACA_site68]	6.96
TGAATAAATAAACACACACACATATATATATCTGTA [CACACA_site4184]	7.06
GTTATACATTTGAAAAGTACTCATGATTTTTTTTTT [XGTACX_site8177]	7
AATATTCAATATAAAGTGCATTATTGTGCCCCTAAT	8.36
TTTTTATTGTTATACTTATATTATTTTATGATTAAA [XGTACX_negctrl_site262]	7.04
ATAAAAATCAAAAAAAATACATAATAGTAATAATAA [GTGCAC_negctrl_site481]	6.83
AAATAGAAAAAATATACACACACTTATTAAATAAAA [CACACA_site3313]	6.78
AAATAATAAAGTATAACACACATATTTATTTATATA [CACACA_site7822]	6.73
AAAATTAAAAAAATATGTACTTATGGGTAACATCAT [XGTACX_site5548]	6.98
AAAAAATTTTAATATGCATGTAATTTTGCTTTTTCA [TGCATGCA_site1044]	6.76
AGCACGCACAGACACACACACATATTTATATTTATA [CACACA_site6291]	7.29
TAATATAGGGGTGTTCAAATAAATTTTGTTATTTTT [CACACA_negctrl_site1203]	7.07
ACCTATTTCAAACACACACACACACCCACAAACATA [CACACA_site977]	7.62
ACGAATATAGGATGTTTGCACTGTACCAATAAATGA [GTGCAC_site9808]	7.9
TTCTTAATACAAATATGTACATATATATATATATAT [XGTACX_site757]	8.83
GATGTGTAAATAAGGATATATAACAATCAACAAAAC [XGTACX_negctrl_site494]	7.36
AATAGAAAAAAAAAATGTACAAAATGTTTATAAAAA [XGTACX_site4635]	6.79
TCATTTTAAGGAAAAAGTACAAAATAATATGTTCCT [XGTACX_site1903]	6.67

Sequence	gcPBM binding intensity (ln)
AAATGAATATAAAATATACACACTTATATATTGAAT [CACACA_site202]	6.81
AAATTACCCTTGTGTACACATATATTATCTGTATTA [CACACA_site4514]	7.1
TATTGAAAGTGAATTATAACATTAAAAATATATATA [TGCATGCA_negctrl_site566]	6.96
TGAATATGTAAATGCACACCAAAAAAAAAAAAAAAA [CACACA_site3566]	7.29
CAATATAAAAGACACACACACAAACATATATTTATA [CACACA_site7697]	6.89
GAAGGAAATAAATCAACACACATATATTATAGATAT [CACACA_site7095]	6.69
ATAATGTAAAATAAATGTACGCAATATATAAAAAAT [XGTACX_site5747]	7.26
TATTATGTTTATTAAACATGCATATATTTATTTATA [TGCATGCA_site187]	6.88
ATATTTTATCATGTTTAATATTTATGTGGACATAAA [GTGCAC_negctrl_site275]	6.98
ACATTTTATATATGTAGTACATATTATAGATAATTT [XGTACX_site1976]	7.24
AGTTGGATACGAAGATGTACAATAATAATAATTAAG [XGTACX_site3561]	7.16
ATCAAAAACATACCTACACACACAATATGTATATAT [CACACA_site9171]	7.05
TATTTTATTTTTTTATGTACACAAAAAAAAAAAAAA [XGTACX_site945]	7.35
TCACTATAATAATTTACACACATTTTAAGAAAATGG [CACACA_site5867]	6.95
GCTTATTAATATCATACACACATAGATATATTTATA [CACACA_site3104]	7.21
AATATATAAATGTTGTGTACTAAGCAATATATTTTA [XGTACX_site2483]	6.94
ATTCGTCACATTTTTTGATATATATATATATATATA [CACACA_negctrl_site1785]	9.68
TAAAAAATATAAACTGCACACACACTAATAAAGAAA [CACACA_site8119]	7.37
ATATAGTTGTCATATTGTACACTTTAGGGTTGGTTA [XGTACX_site7339]	6.81
CTATTATCGGTTCCTACACACAAATATATATGTCTA [CACACA_site3579]	7.29
TACAATCCATATTGTTGTACATTTATAAAATTTACA [XGTACX_site3053]	6.89
CAATGGTACATACATACACACACACTAATAAAAAAA [CACACA_site8450]	7.02
